# Test results published in PubChem BioAssay (Tox21).
# Inconclusive results are not listed. Calls follow the shape of the dose curve; as a rule, active = well fitted curve in the direction sought with a large enough effect in the repeat runs; inconclusive = weak or mixed curves; inactive = no such curve, though single readings can be large; an effect the other way counts as inactive or inconclusive. Some structures have more than one record in an assay (separate samples or runs), and their calls can disagree. Not every entry of the source has a single result; some have several. This list holds those alone. The source may hold further records. The records of an entry repeat one measurement (runs, samples, wells, individuals or studies). A tag in brackets gives the origin of a value. The letters are not those of the source and start again with each entry. Additions like (4×) give the number of equal values in this list.
# What was measured:
# [1] = qHTS assay to identify small molecule antagonists of the glucocorticoid receptor (GR) signaling pathway - cell viability counter screen (AID 720693); also: nearly all actives have a fitted effect of over 55% in size
# [2] = qHTS assay for identifying genotoxic compounds that show differential cytotoxicity against isogenic chicken DT40 cell lines with known DNA damage response pathways - Rev3 mutant cell line (AID 743014); also: nearly all actives have a fitted effect of over 55% in size
# [3] = qHTS assay to identify small molecule antagonists of the androgen receptor (AR) signaling pathway using the MDA cell line - cell viability counter screen (AID 743041; also: nearly all actives have a fitted effect of over 45% in size)
# Method in brief: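 Cytotoxicity counter screen: MDA-kb2 AR-luc cells, compound + R1881, 16 h, 37C, 0% CO2; CellTiter-Fluor added at 15.5 h, fluorescence read after 30 min.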
# [4] = qHTS assay to identify small molecule agonists of the constitutive androstane receptor (CAR) signaling pathway - cell viability counter screen (AID 1224836); also: nearly all actives have a fitted effect of over 45% in size
# Method in brief: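 HepG2-CYP2B6-hCAR, 2500 cells/well, 4 h pre-incubation; cpd 15 conc + PK11195 0.75 uM final; 23 h, 37 C/5% CO2; CellTiter-Fluor, fluorescence.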
# [5] = qHTS assay to identify small molecule antagonists of the constitutive androstane receptor (CAR) signaling pathway - cell viability counter screen (AID 1224837); also: nearly all actives have a fitted effect of over 45% in size
# Method in brief: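 CITCO at 50 nM final was added alongside compounds (15 concentrations) to double-stable hCAR/CYP2B6-2.2kb HepG2 cells. Following 23 hr at 37 C, cell viability was quantified by CellTiter-Fluor fluorescence intensity.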
# [6] = qHTS assay to identify small molecule antagonists of the progesterone receptor (PR) signaling pathway - cell viability counter screen (AID 1346798); also: nearly all actives have a fitted effect of over 50% in size
# Method in brief: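 HEK293T PR-UAS-bla, 2% charcoal-stripped FBS; 4 hr pre-plate; cpd + R5020, 16 h 37C; LiveBLAzer read first; then CellTiter-Glo 30 min RT, luminescence.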
# [7] = qHTS assay to identify small molecule antagonists of the peroxisome proliferator-activated receptor gamma (PPARg) signaling pathway - cell viability counter screen (AID 743194); also: nearly all actives have a fitted effect of over 55% in size
# Method in brief: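 Cytotoxicity counter screen in PPARg-bla HEK293H cells, same wells as reporter assay. Compounds plus 50 nM rosiglitazone (final) for 17 h at 37 C, then viability read by CellTiter-Glo luminescence.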
# [8] = A CellTox Green Cytotoxicity Assay to monitor cytotoxicity in HEK293 cells - 24 hour (AID 1224875); also: nearly all actives have a fitted effect of over 45% in size
# Method in brief: (§1)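 Real-time, in one plate: 600 HEK293 cells/well with dead-cell DNA dye, pinned compound after 5 h, 37 C incubation over 40 h; viable cells give no appreciable fluorescence.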
# [9] = A CellTox Green Cytotoxicity Assay to monitor cytotoxicity in HEK293 cells - 16 hour (AID 1224888); also: nearly all actives have a fitted effect of over 35% in size
# Method in brief: as §1
# % is scaled to controls: 0 for no effect and ±100 for the full control effect; potency is read from the fitted curve at half-maximal effect.
structure (smiles),measurement,setting,value
CC(C)(C)c1cc(O)ccc1O,Potency,[1],inactive (3×) and active: 21.3 µM [separate samples]
same,Potency,[2],"inactive and active: 6.68 µM, 38.6 µM, 7.7 µM [separate samples]"
O=C1C2CC=CCC2C(=O)N1SC(Cl)(Cl)Cl (stereo not drawn),Potency,[1],inactive [sample A] and inactive [sample B] and active: 12.1 µM [sample C]
same,Potency,[3],active: 22.1 µM [sample A] and inactive [sample B] and active: 23.9 µM [sample C]
same,Potency,[4],inactive [sample A] and active: 26.9 µM [sample B]
same,Potency,[5],inactive [sample A] and active: 19 µM [sample B]
same,Potency,[6],inactive [sample A] and active: 60.1 µM [sample B]
C[C@H]1CCCC(=O)CCC/C=C/c2cc(O)cc(O)c2C(=O)O1,Potency,[4],active: 52.5 µM [sample A] and inactive [sample B]
same,Potency,[5],active: 52.5 µM [sample A] and inactive [sample B]
C=CC1(C)OC(=O)N(c2cc(Cl)cc(Cl)c2)C1=O (stereo not drawn),Potency,[6],active: 48.3 µM [sample A] and inactive [sample B]
ClC1=C(Cl)C2(Cl)C(CBr)CC1(Cl)C2(Cl)Cl (stereo not drawn),Potency,[7],active: 43.6 µM [sample A] and inactive [sample B]
same,Potency,[8],active: 54.9 µM [sample A] and inactive [sample B]
same,Potency,[9],active: 54.9 µM [sample A] and inactive [sample B]
